# From patent US20240270806A1 (Chugai, published 2024)
# B1: Bivalent IL-12 fusion protein FP21 (other)
# heavy: QVQLVQSGAEVKKPGSSVKVSCKASGGTFSDYYLHWSRQAPGQGLEWMGWIDAENQDTEYAPKFQGRVTITADESTSTAYMELSSLRSEDTAVYYCARTKELRYIDQWGQGTLVTVSSTSGSGRSATPRGASTKGPSVFPLAPCSKSTSGGTAALGCLVKDYFPEPVTVSWNSGALTSGVHTFPAVLQSSGLYSLSSVVTVPSSSLGTQTYICNVNHKPSNTKVDKRVGGGGSGGGGS[human IgG1 Fc with changes cut from this listing]GSGGSGGSGGSGGSGGSIWELKKDVYVVELDWYPDAPGEMVVLTCDTPEEDGITWTLDQSSEVLGSGKTLTIQVKEFGDAGQYTCHKGGEVLSHSLLLLHKKEDGIWSTDILKDQKEPKNKTFLRCEAKNYSGRFTCWWLTTISTDLTFSVKSSRGSSDPQGVTCGAATLSAERVRGDNKEYEYSVECQEDSACPAAEESLPIEVMVDAVHKLKYENYTSSFFIRDIIKPDPPKNLQLKPLKNSRQVEVSWEYPDTWSTPHSYFSLTFCVQVQGKHKEKKDRVFTDKTSATVICRKNASISVRAQDRYYSSSWSEWASVPCSGGGGSGGGGSGGGGSGGGGSNLPVATPDPGMFPCLHHSQNLLRAVSNMLQKARQTLEFYPCTSEEIDHEDITKDKTSTVEACLPLELTKNESCLNSRETSFITNGSCLASRKTSFMMALCLSSIYEDLKMYQVEFKTMNAKLLMDPKRQIFLDQNMLAVIDELMQALNFNSETVPQKSSLEEPDFYKTKIKLCILLHAFRIRAVTIDRVMSYLNAS
# light: DIVMTQSPLSLPVTPGEPASISCRSSDSISINLHWYQQKPGQAPRQLIAFASQSIEGVPSRFSGSGSGTDFTLTISSLQPEDFATYYCQQSNSFPLTFGQGTKVEIKRTVAAPSVFIFPPSDEQLKSGTASVVCLLNNFYPREAKVQWKVDNALQSGNSQESVTEQDSKDSTYSLSSTLTLSKADYEKHKVYACEVTHQGLSSPVTKSFNRGEC
# B2: Bivalent IL-12 fusion protein FP17 (other)
# heavy: QVQLVQSGAEVKKPGSSVKVSCKASGGTFSDYYLHWSRQAPGQGLEWMGWIDPENQDTEYAPKFQGRVTITADESTSTAYMELSSLRSEDTAVYYCARTKELRYIDVWGQGTLVTVSSYSATGRSANPRGASTKGPSVFPLAPCSKSTSGGTAALGCLVKDYFPEPVTVSWNSGALTSGVHTFPAVLQSSGLYSLSSVVTVPSSSLGTQTYICNVNHKPSNTKVDKRVGGGGSGGGGS[human IgG1 Fc with changes cut from this listing]GSGGSGGSGGSGGSGGSIWELKKDVYVVELDWYPDAPGEMVVLTCDTPEEDGITWTLDQSSEVLGSGKTLTIQVKEFGDAGQYTCHKGGEVLSHSLLLLHKKEDGIWSTDILKDQKEPKNKTFLRCEAKNYSGRFTCWWLTTISTDLTFSVKSSRGSSDPQGVTCGAATLSAERVRGDNKEYEYSVECQEDSACPAAEESLPIEVMVDAVHKLKYENYTSSFFIRDIIKPDPPKNLQLKPLKNSRQVEVSWEYPDTWSTPHSYFSLTFCVQVQGKHKEKKDRVFTDKTSATVICRKNASISVRAQDRYYSSSWSEWASVPCSGGGGSGGGGSGGGGSGGGGSNLPVATPDPGMFPCLHHSQNLLRAVSNMLQKARQTLEFYPCTSEEIDHEDITKDKTSTVEACLPLELTKNESCLNSRETSFITNGSCLASRKTSFMMALCLSSIYEDLKMYQVEFKTMNAKLLMDPKRQIFLDQNMLAVIDELMQALNFNSETVPQKSSLEEPDFYKTKIKLCILLHAFRIRAVTIDRVMSYLNAS
# light: B1 light with E56S
# B3: Bivalent IL-12 fusion protein FP15 (other)
# heavy: QVQLVQSGAEVKKPGSSVKVSCKASGGTFSDYYLHWSRQAPGQGLEWMGWIDPENGDTEYAPKFQGRVTITADESTSTAYMELSSLRSEDTAVYYCARNKELRYIDVWGQGTLVTVSSYSATGRSANPRGASTKGPSVFPLAPCSKSTSGGTAALGCLVKDYFPEPVTVSWNSGALTSGVHTFPAVLQSSGLYSLSSVVTVPSSSLGTQTYICNVNHKPSNTKVDKRVGGGGSGGGGS[human IgG1 Fc with changes cut from this listing]GSGGSGGSGGSGGSGGSIWELKKDVYVVELDWYPDAPGEMVVLTCDTPEEDGITWTLDQSSEVLGSGKTLTIQVKEFGDAGQYTCHKGGEVLSHSLLLLHKKEDGIWSTDILKDQKEPKNKTFLRCEAKNYSGRFTCWWLTTISTDLTFSVKSSRGSSDPQGVTCGAATLSAERVRGDNKEYEYSVECQEDSACPAAEESLPIEVMVDAVHKLKYENYTSSFFIRDIIKPDPPKNLQLKPLKNSRQVEVSWEYPDTWSTPHSYFSLTFCVQVQGKHKEKKDRVFTDKTSATVICRKNASISVRAQDRYYSSSWSEWASVPCSGGGGSGGGGSGGGGSGGGGSNLPVATPDPGMFPCLHHSQNLLRAVSNMLQKARQTLEFYPCTSEEIDHEDITKDKTSTVEACLPLELTKNESCLNSRETSFITNGSCLASRKTSFMMALCLSSIYEDLKMYQVEFKTMNAKLLMDPKRQIFLDQNMLAVIDELMQALNFNSETVPQKSSLEEPDFYKTKIKLCILLHAFRIRAVTIDRVMSYLNAS
# light: B1 light with S25A, D27Q, E56S
# B4: Bivalent IL-12 fusion protein FP20 (other)
# heavy: QVQLVQSGAEVKKPGSSVKVSCKASGGTFSDYYLHWSRQAPGQGLEWMGWIDPENQDTEYAPKFQGRVTITADESTSTAYMELSSLRSEDTAVYYCARTKELRYIDVWGQGTLVTVSSTSGSGRSATPRGASTKGPSVFPLAPCSKSTSGGTAALGCLVKDYFPEPVTVSWNSGALTSGVHTFPAVLQSSGLYSLSSVVTVPSSSLGTQTYICNVNHKPSNTKVDKRVGGGGSGGGGS[human IgG1 Fc with changes cut from this listing]GSGGSGGSGGSGGSGGSIWELKKDVYVVELDWYPDAPGEMVVLTCDTPEEDGITWTLDQSSEVLGSGKTLTIQVKEFGDAGQYTCHKGGEVLSHSLLLLHKKEDGIWSTDILKDQKEPKNKTFLRCEAKNYSGRFTCWWLTTISTDLTFSVKSSRGSSDPQGVTCGAATLSAERVRGDNKEYEYSVECQEDSACPAAEESLPIEVMVDAVHKLKYENYTSSFFIRDIIKPDPPKNLQLKPLKNSRQVEVSWEYPDTWSTPHSYFSLTFCVQVQGKHKEKKDRVFTDKTSATVICRKNASISVRAQDRYYSSSWSEWASVPCSGGGGSGGGGSGGGGSGGGGSNLPVATPDPGMFPCLHHSQNLLRAVSNMLQKARQTLEFYPCTSEEIDHEDITKDKTSTVEACLPLELTKNESCLNSRETSFITNGSCLASRKTSFMMALCLSSIYEDLKMYQVEFKTMNAKLLMDPKRQIFLDQNMLAVIDELMQALNFNSETVPQKSSLEEPDFYKTKIKLCILLHAFRIRAVTIDRVMSYLNAS
# light: B1 light with E56S
# B5: Bivalent IL-12 fusion protein FP22 (other)
# heavy: QVQLVQSGAEVKKPGSSVKVSCKASGGTFSDYYLHWSRQAPGQGLEWMGWIDPENQDTEYAPKFQGRVTITADESTSTAYMELSSLRSEDTAVYYCARTKELRYIDVWGQGTLVTVSSTSGSGRSATPRGASTKGPSVFPLAPCSKSTSGGTAALGCLVKDYFPEPVTVSWNSGALTSGVHTFPAVLQSSGLYSLSSVVTVPSSSLGTQTYICNVNHKPSNTKVDKRVGGGGSGGGGS[human IgG1 Fc with changes cut from this listing]GSGGSGGSGGSGGSGGSIWELKKDVYVVELDWYPDAPGEMVVLTCDTPEEDGITWTLDQSSEVLGSGKTLTIQVKEFGDAGQYTCHKGGEVLSHSLLLLHKKEDGIWSTDILKDQKEPKNKTFLRCEAKNYSGRFTCWWLTTISTDLTFSVKSSRGSSDPQGVTCGAATLSAERVRGDNKEYEYSVECQEDSACPAAEESLPIEVMVDAVHKLKYENYTSSFFIRDIIKPDPPKNLQLKPLKNSRQVEVSWEYPDTWSTPHSYFSLTFCVQVQGKHKEKKDRVFTDKTSATVICRKNASISVRAQDRYYSSSWSEWASVPCSGGGGSGGGGSGGGGSGGGGSNLPVATPDPGMFPCLHHSQNLLRAVSNMLQKARQTLEFYPCTSEEIDHEDITKDKTSTVEACLPLELTKNESCLNSRETSFITNGSCLASRKTSFMMALCLSSIYEDLKMYQVEFKTMNAKLLMDPKRQIFLDQNMLAVIDELMQALNFNSETVPQKSSLEEPDFYKTKIKLCILLHAFRIRAVTIDRVMSYLNAS
# light: B1 light
# B6: Bivalent IL-12 fusion protein FP16 (other)
# heavy: QVQLVQSGAEVKKPGSSVKVSCKASGGTFSDYYLHWSRQAPGQGLEWMGWIDPENGDTEYAPKFQGRVTITADESTSTAYMELSSLRSEDTAVYYCARNKELRYIDVWGQGTLVTVSSYSATGRSANPRGASTKGPSVFPLAPCSKSTSGGTAALGCLVKDYFPEPVTVSWNSGALTSGVHTFPAVLQSSGLYSLSSVVTVPSSSLGTQTYICNVNHKPSNTKVDKRVGGGGSGGGGS[human IgG1 Fc with changes cut from this listing]GSGGSGGSGGSGGSGGSIWELKKDVYVVELDWYPDAPGEMVVLTCDTPEEDGITWTLDQSSEVLGSGKTLTIQVKEFGDAGQYTCHKGGEVLSHSLLLLHKKEDGIWSTDILKDQKEPKNKTFLRCEAKNYSGRFTCWWLTTISTDLTFSVKSSRGSSDPQGVTCGAATLSAERVRGDNKEYEYSVECQEDSACPAAEESLPIEVMVDAVHKLKYENYTSSFFIRDIIKPDPPKNLQLKPLKNSRQVEVSWEYPDTWSTPHSYFSLTFCVQVQGKHKEKKDRVFTDKTSATVICRKNASISVRAQDRYYSSSWSEWASVPCSGGGGSGGGGSGGGGSGGGGSNLPVATPDPGMFPCLHHSQNLLRAVSNMLQKARQTLEFYPCTSEEIDHEDITKDKTSTVEACLPLELTKNESCLNSRETSFITNGSCLASRKTSFMMALCLSSIYEDLKMYQVEFKTMNAKLLMDPKRQIFLDQNMLAVIDELMQALNFNSETVPQKSSLEEPDFYKTKIKLCILLHAFRIRAVTIDRVMSYLNAS
# light: B1 light with S25A, D27Q, E56S, N92Y
# B7: Bivalent IL-12 fusion protein FP19 (other)
# heavy: QVQLVQSGAEVKKPGSSVKVSCKASGGTFSDYYLHWSRQAPGQGLEWMGWIDPENGDTEYAPKFQGRVTITADESTSTAYMELSSLRSEDTAVYYCARNKELRYIDVWGQGTLVTVSSTSGSGRSATPRGASTKGPSVFPLAPCSKSTSGGTAALGCLVKDYFPEPVTVSWNSGALTSGVHTFPAVLQSSGLYSLSSVVTVPSSSLGTQTYICNVNHKPSNTKVDKRVGGGGSGGGGS[human IgG1 Fc with changes cut from this listing]GSGGSGGSGGSGGSGGSIWELKKDVYVVELDWYPDAPGEMVVLTCDTPEEDGITWTLDQSSEVLGSGKTLTIQVKEFGDAGQYTCHKGGEVLSHSLLLLHKKEDGIWSTDILKDQKEPKNKTFLRCEAKNYSGRFTCWWLTTISTDLTFSVKSSRGSSDPQGVTCGAATLSAERVRGDNKEYEYSVECQEDSACPAAEESLPIEVMVDAVHKLKYENYTSSFFIRDIIKPDPPKNLQLKPLKNSRQVEVSWEYPDTWSTPHSYFSLTFCVQVQGKHKEKKDRVFTDKTSATVICRKNASISVRAQDRYYSSSWSEWASVPCSGGGGSGGGGSGGGGSGGGGSNLPVATPDPGMFPCLHHSQNLLRAVSNMLQKARQTLEFYPCTSEEIDHEDITKDKTSTVEACLPLELTKNESCLNSRETSFITNGSCLASRKTSFMMALCLSSIYEDLKMYQVEFKTMNAKLLMDPKRQIFLDQNMLAVIDELMQALNFNSETVPQKSSLEEPDFYKTKIKLCILLHAFRIRAVTIDRVMSYLNAS
# light: B1 light with S25A, D27Q, E56S, N92Y
# Target: Human IL-12 receptor (human IL-12Rb1 and IL-12Rb2) (human, UniProt P42701 24-662; Q99665 24-862)
# Assay: cell-based or functional assay
row,"Fold change (window), IL-12 luciferase assay [fold]",Binder
1,42.9,B1
2,30.6,B2
3,15.6,B3
4,75.7,B4
5,42.9,B5
6,27,B6
7,54.9,B7

# Changes are numbered by the printed parent chain.
